The other results are listed elsewhere or left out.
Target: T1, OsWOX13 (Oryza sativa, UniProt Q5QMM3 1-267)
T1 sequence: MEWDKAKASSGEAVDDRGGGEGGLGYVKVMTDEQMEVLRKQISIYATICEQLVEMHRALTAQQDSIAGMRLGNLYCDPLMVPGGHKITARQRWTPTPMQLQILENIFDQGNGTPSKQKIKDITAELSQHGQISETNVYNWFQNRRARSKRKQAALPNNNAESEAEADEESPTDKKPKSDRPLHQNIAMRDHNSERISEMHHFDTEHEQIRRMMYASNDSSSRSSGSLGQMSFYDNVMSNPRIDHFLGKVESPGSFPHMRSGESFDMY
Assay: protein-binding microarray (RPBM); PBS, 2% BSA, 51.3 ng/ul salmon testes DNA, 50 uM zinc acetate, 200 nM TF, 25 C, 1 h; high values mean tight binding
Conditions: protein: recombinant; tags: N-terminal polyhistidine and DsRed monomer fusion (pET32a); label: CyDye5-dUTP incorporated in the synthesized complementary strand; 3' TTTTT single-stranded linker to array surface; dsDNA, one strand shown
Method in brief: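 A custom Agilent array was converted to double-stranded form by primer extension with Cy5-dUTP and blocked with 2% BSA. Protein at 200 nM in PBS with 2% BSA, salmon testes DNA and 50 µM zinc acetate was applied for 1 h at 25 °C, followed by washing. The proteins were polyhistidine–DsRed N-terminal fusions of transcription factors, expressed in E. coli BL21-CodonPlus and Ni–NTA-purified. The binding signal is per-feature fluorescence intensity (arbitrary units) from an Axon 4000B scanner.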

| Sequence | binding signal |
| --- | --- |
| GATGATAAAACATGATTAATAATTTATGCGTGACTTATCTCGGAGTCACCTAGTGCAG | 25500 fluorescence intensity (a.u.) |
| GTAATTGTAATCCTCCATACTTGTAAATGTTACTCGAACACGGAGTCACCTAGTGCAG | 4020 fluorescence intensity (a.u.) |
| GTTAACTTTGTTAAATGTATTCTGTTCTGAGGATCCAAATCGGAGTCACCTAGTGCAG | 5080 fluorescence intensity (a.u.) |
| GAAATTAATTAATCAATCGATGCGAACTTTTGCATCTACACGGAGTCACCTAGTGCAG | 45100 fluorescence intensity (a.u.) |
| GGGACTAAATTTAGTCCCTCTCACAAAAGTATAAGTCCCTCGGAGTCACCTAGTGCAG | 4600 fluorescence intensity (a.u.) |
| TTAATAAATTTAGATAGATATATATGTCTAGATTCATTAACGGAGTCACCTAGTGCAG | 8700 fluorescence intensity (a.u.) |
| CAGTTGATGAGATTTGCATCGTGCGATTCTTCTGATTGAGCGGAGTCACCTAGTGCAG | 23900 fluorescence intensity (a.u.) |
| TGGGAAATCATTTTCATTTCCAATTAGCCGAACATTGCATCGGAGTCACCTAGTGCAG | 5420 fluorescence intensity (a.u.) |
| TTGTAACATGTTAATTACTCCATTAGCATGGATAATCAGACGGAGTCACCTAGTGCAG | 16500 fluorescence intensity (a.u.) |
| AACTTTTAAACTGCTAACAATAGATATATAAACTTACCCACGGAGTCACCTAGTGCAG | 3640 fluorescence intensity (a.u.) |
| GAGAATAAAGTGAGTGTGATTGGAGCCTAATAATTGCATTCGGAGTCACCTAGTGCAG | 21100 fluorescence intensity (a.u.) |
| GCTTCAATGATTTCTGATTCTGTTGCTTCTCCCTCCTTCCCGGAGTCACCTAGTGCAG | 10400 fluorescence intensity (a.u.) |
| ATATAATTGTAGTGTAATTACATTGTAACTTACATATAATCGGAGTCACCTAGTGCAG | 13800 fluorescence intensity (a.u.) |
| ATCTGATTTGACAATGGACGTGACGGCCACCCGACCTCTCCGGAGTCACCTAGTGCAG | 12900 fluorescence intensity (a.u.) |
| AACTAATTTCTATATGTTGTTGTAACACGAGTTATACATCCGGAGTCACCTAGTGCAG | 5450 fluorescence intensity (a.u.) |
| TAAGTAATTATTTATTCTTTTCATATCATTTGATTCATTGCGGAGTCACCTAGTGCAG | 15400 fluorescence intensity (a.u.) |
| TGTGATTGTGTTGCTACAAACATCGTAATATTTGAGAAATCGGAGTCACCTAGTGCAG | 17800 fluorescence intensity (a.u.) |
| TAAATTACACGAAGATTAATATGCTACTGAAAATACTCCTCGGAGTCACCTAGTGCAG | 5600 fluorescence intensity (a.u.) |
| TACATGATTTATAAAGTATATATTACAAGTAAACTTATATCGGAGTCACCTAGTGCAG | 7980 fluorescence intensity (a.u.) |
| ACGGTTAATTTTGCATTCAAACAGGGTTCACCAGCTACCCCGGAGTCACCTAGTGCAG | 14300 fluorescence intensity (a.u.) |
| TGGTTTTCCGTTAATTTGCCTATGATCGTTTCCTGCATGCCGGAGTCACCTAGTGCAG | 4670 fluorescence intensity (a.u.) |

| Sequence | binding signal |
| --- | --- |
| GACTCAGGGTAAATTATTCAATCCTATTTTAACTTATACTCGGAGTCACCTAGTGCAG | 4480 fluorescence intensity (a.u.) |
| AGTATTGTTTTCTCGCTGTCTCTATCCAAATCTTTGAAAACGGAGTCACCTAGTGCAG | 3390 fluorescence intensity (a.u.) |
| ATCTAAATTGGTCATGTTCTCTGATTAGTGAGTGCCCTGCCGGAGTCACCTAGTGCAG | 37800 fluorescence intensity (a.u.) |
| CAAATTGTACCAATTAAGTCAATCCTAACTTCTATACCAACGGAGTCACCTAGTGCAG | 18200 fluorescence intensity (a.u.) |
| CCTTAAAGGTAATTGTTGGGGAATGACATCAAATTAGCTTCGGAGTCACCTAGTGCAG | 12700 fluorescence intensity (a.u.) |
| GATGGCAATCATAGAGCCATCAGGTAACTGTGCCTTGTAGCGGAGTCACCTAGTGCAG | 3510 fluorescence intensity (a.u.) |
| TTAAATTTACTTTTCATTTTAAGGCAAAATTTGCTATATGCGGAGTCACCTAGTGCAG | 12800 fluorescence intensity (a.u.) |
| ACGTAATTATAATTTATTTTGTTATGAGTTGGTTTATCACCGGAGTCACCTAGTGCAG | 62600 fluorescence intensity (a.u.) |
| CAAATTGACCCTTTTGGAAAACTTATTTCGAAACTAACCCCGGAGTCACCTAGTGCAG | 4690 fluorescence intensity (a.u.) |
| ACATGAGCTAATTTTGATATAAATTGGTTTTCCTTGACCACGGAGTCACCTAGTGCAG | 9520 fluorescence intensity (a.u.) |
| CAAATTCTAATCAATTTCGTATTTACTCCGTCTACTACTACGGAGTCACCTAGTGCAG | 9400 fluorescence intensity (a.u.) |
| TGCTTGCCTCAAGTTGATTGCCAAATCGAACCATGTTATTCGGAGTCACCTAGTGCAG | 4940 fluorescence intensity (a.u.) |
| TGTCAGAAGTAAATTTGACTGAGATTAACAGAATGCCACTCGGAGTCACCTAGTGCAG | 17100 fluorescence intensity (a.u.) |
| TTATAAAATGAATGGAATAATAACAAACTCAATGGCAATTCGGAGTCACCTAGTGCAG | 3410 fluorescence intensity (a.u.) |
| CTATAATATATCTAAATTACTTTTAGGCTTTATTGAATTTCGGAGTCACCTAGTGCAG | 6430 fluorescence intensity (a.u.) |
| CGGTAATGGACAGTACAACTACCAGTACAAGATCCGGGTGCGGAGTCACCTAGTGCAG | 13500 fluorescence intensity (a.u.) |
| AGATGGATGACTAAATTGCACCCACCTTACAGGTTGTGGTCGGAGTCACCTAGTGCAG | 3170 fluorescence intensity (a.u.) |
| TTTGATTATAGTACATATCATGTCCAAACTCTCAACGACCCGGAGTCACCTAGTGCAG | 17600 fluorescence intensity (a.u.) |
| GTGCAATTAAGCGTGTAGGGATTGGTTGGTTTAGCTCAAGCGGAGTCACCTAGTGCAG | 4090 fluorescence intensity (a.u.) |
| TACACTATAATTACACTCTGTAAGTAGTATGTAACTGAGTCGGAGTCACCTAGTGCAG | 5500 fluorescence intensity (a.u.) |
| TTGATGGATGGGAAATCATTTCCCCTATCCCATTAGCCAACGGAGTCACCTAGTGCAG | 14400 fluorescence intensity (a.u.) |

Reference: article PMC7819943, “Rice protein-binding microarrays: a tool to detect cis-acting elements near promoter regions in rice”
